# Results published in the supplement of paper PMC8728848.
# The other results are listed elsewhere or left out.
# Experiments:
# Test in all cases: glycan array binding signal (z-score within array); higher = stronger binding
# Conditions in all cases: glycan notation: IUPAC condensed, linker removed
# GlcNAc(b1-6)GalNAc = molecular target: GlcNAc(b1-6)GalNAc
# In short: (§1)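 Glycan array data were curated from 3228 arrays in the Consortium for Functional Glycomics database and kept only where the protein sequence was available. Glycan names were converted to IUPAC-condensed notation, and columns mapping to the same glycan were averaged. The binding signal is a within-array Z-score, averaged across arrays of the same protein sequence at different concentrations or buffers and across linkers. Negative Z-scores can be read as non-binding.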
# GlcNAc3Prop(b1-4)GlcNAc = molecular target: GlcNAc3Prop(b1-4)GlcNAc
# In short: as §1
# [1] = molecular target: GlcNAc6S(b1-3)Gal(b1-4)GlcNAc
# In short: as §1
# Kdn(a2-3)Gal(b1-3)GalNAc = molecular target: Kdn(a2-3)Gal(b1-3)GalNAc
# In short: as §1
# Kdn(a2-3)Gal(b1-3)GlcNAc = molecular target: Kdn(a2-3)Gal(b1-3)GlcNAc
# In short: as §1
# Kdn(a2-3)Gal(b1-4)Glc = molecular target: Kdn(a2-3)Gal(b1-4)Glc
# In short: as §1
# Kdn(a2-3)Gal(b1-4)GlcNAc = molecular target: Kdn(a2-3)Gal(b1-4)GlcNAc
# In short: as §1
# [2] = molecular target: Kdn(a2-3)Gal(b1-4)[Fuc(a1-3)]GlcNAc
# In short: as §1
# Kdn(a2-6)Gal(b1-4)GlcNAc = molecular target: Kdn(a2-6)Gal(b1-4)GlcNAc
# In short: as §1
# [3] = molecular target: Man(a1-2)Man(a1-2)Man(a1-3)Man
# In short: as §1
# [4] = molecular target: Man(a1-2)Man(a1-2)Man(a1-6)[Man(a1-3)]Man
# In short: as §1
# Man(a1-2)Man(a1-3)Man = molecular target: Man(a1-2)Man(a1-3)Man
# In short: as §1
# [5] = molecular target: Man(a1-2)Man(a1-3)[Man(a1-2)Man(a1-6)]Man
# In short: as §1
# [6] = molecular target: Man(a1-2)Man(a1-3)[Man(a1-2)Man(a1-6)]Man(a1-6)[Man(a1-2)Man(a1-2)Man(a1-3)]Man
# In short: as §1
# [7] = molecular target: Man(a1-2)Man(a1-3)[Man(a1-2)Man(a1-6)]Man(a1-6)[Man(a1-2)Man(a1-2)Man(a1-3)]Man(b1-4)GlcNAc(b1-4)GlcNAc
# In short: as §1
# [8] = molecular target: Man(a1-2)Man(a1-3)[Man(a1-6)]Man(a1-6)[Man(a1-2)Man(a1-3)]Man(b1-4)GlcNAc(b1-4)GlcNAc
# In short: as §1
# [9] = molecular target: Man(a1-2)Man(a1-6)[Man(a1-3)]Man(a1-6)[Man(a1-2)Man(a1-2)Man(a1-3)]Man
# In short: as §1
# [10] = molecular target: Man(a1-2)Man(a1-6)[Man(a1-3)]Man(a1-6)[Man(a1-2)Man(a1-2)Man(a1-3)]Man(b1-4)GlcNAc(b1-4)GlcNAc
# In short: as §1
# Man(a1-3)[Man(a1-6)]Man = molecular target: Man(a1-3)[Man(a1-6)]Man
# In short: as §1
# [11] = molecular target: Man(a1-3)[Man(a1-6)]Man(a1-6)[Man(a1-2)Man(a1-3)]Man(b1-4)GlcNAc(b1-4)GlcNAc
# In short: as §1
# [12] = molecular target: Man(a1-3)[Man(a1-6)]Man(a1-6)[Man(a1-3)]Man
# In short: as §1
# [13] = molecular target: Man(a1-3)[Man(a1-6)]Man(a1-6)[Man(a1-3)]Man(b1-4)GlcNAc(b1-4)GlcNAc
# In short: as §1
# [14] = molecular target: Man(a1-3)[Man(a1-6)]Man(b1-4)GlcNAc(b1-4)GlcNAc
# In short: as §1
# Man(a1-6)Man = molecular target: Man(a1-6)Man
# In short: as §1
# Man(b1-4)GlcNAc = molecular target: Man(b1-4)GlcNAc
# In short: as §1
# Neu5Ac(a2-3)Gal = molecular target: Neu5Ac(a2-3)Gal
# In short: as §1
# [15] = molecular target: Neu5Ac(a2-3)Gal(b1-3)GalNAc
# In short: as §1
# [16] = molecular target: Neu5Ac(a2-3)Gal(b1-3)GalNAc(b1-3)Gal(a1-4)Gal(b1-4)Glc
# In short: as §1
# [17] = molecular target: Neu5Ac(a2-3)Gal(b1-3)GalNAc(b1-4)[Neu5Ac(a2-3)]Gal(b1-4)Glc
# In short: as §1
# [18] = molecular target: Neu5Ac(a2-3)Gal(b1-3)GalNAc(b1-4)[Neu5Ac(a2-8)Neu5Ac(a2-3)]Gal(b1-4)Glc
# In short: as §1
# [19] = molecular target: Neu5Ac(a2-3)Gal(b1-3)GalNAc6S
# In short: as §1
# [20] = molecular target: Neu5Ac(a2-3)Gal(b1-3)GlcNAc
# In short: as §1
# [21] = molecular target: Neu5Ac(a2-3)Gal(b1-3)GlcNAc(b1-3)Gal(b1-3)GlcNAc
# In short: as §1
# [22] = molecular target: Neu5Ac(a2-3)Gal(b1-3)GlcNAc(b1-3)Gal(b1-4)GlcNAc
# In short: as §1
# [23] = molecular target: Neu5Ac(a2-3)Gal(b1-3)GlcNAc(b1-3)GalNAc
# In short: as §1
# [24] = molecular target: Neu5Ac(a2-3)Gal(b1-3)GlcNAc6S
# In short: as §1
# [25] = molecular target: Neu5Ac(a2-3)Gal(b1-3)[Fuc(a1-4)]GlcNAc
# In short: as §1
# [26] = molecular target: Neu5Ac(a2-3)Gal(b1-3)[Fuc(a1-4)]GlcNAc(b1-3)Gal(b1-3)[Fuc(a1-4)]GlcNAc
# In short: as §1
# [27] = molecular target: Neu5Ac(a2-3)Gal(b1-3)[Fuc(a1-4)]GlcNAc(b1-3)Gal(b1-4)[Fuc(a1-3)]GlcNAc
# In short: as §1
# [28] = molecular target: Neu5Ac(a2-3)Gal(b1-3)[Neu5Ac(a2-3)Gal(b1-4)]GlcNAc
# In short: as §1
# [29] = molecular target: Neu5Ac(a2-3)Gal(b1-3)[Neu5Ac(a2-6)]GalNAc
# In short: as §1
# Neu5Ac(a2-3)Gal(b1-4)Glc = molecular target: Neu5Ac(a2-3)Gal(b1-4)Glc
# In short: as §1
# [30] = molecular target: Neu5Ac(a2-3)Gal(b1-4)GlcNAc
# In short: as §1
# [31] = molecular target: Neu5Ac(a2-3)Gal(b1-4)GlcNAc(b1-2)Man(a1-3)[GlcNAc(b1-2)Man(b1-4)GlcNAc(b1-2)Man(a1-6)]Man(b1-4)GlcNAc(b1-4)GlcNAc
# In short: as §1
# [32] = molecular target: Neu5Ac(a2-3)Gal(b1-4)GlcNAc(b1-2)Man(a1-3)[Neu5Ac(a2-6)Gal(b1-4)GlcNAc(b1-2)Man(a1-6)]Man(b1-4)GlcNAc(b1-4)GlcNAc
# In short: as §1
binder,measurement,setting,value
"CV-2L (Chromobacterium violaceum), Q7NX84 (protein) MAQQGVFTLPARINFGVTVLVNSAATQHVEIFVDNEPRAAFSGVGTGDNNLGTKVINSGSGNVRVQITANGRQSDLVSSQLVLANKLNLAVVGSEDGTDMDYNDSIVILNWPLG",glycan array binding signal (z-score),GlcNAc(b1-6)GalNAc,-0.343
same,glycan array binding signal (z-score),GlcNAc3Prop(b1-4)GlcNAc,-0.332
same,glycan array binding signal (z-score),[1],-0.35
same,glycan array binding signal (z-score),Kdn(a2-3)Gal(b1-3)GalNAc,-0.275
same,glycan array binding signal (z-score),Kdn(a2-3)Gal(b1-3)GlcNAc,-0.33
same,glycan array binding signal (z-score),Kdn(a2-3)Gal(b1-4)Glc,-0.336
same,glycan array binding signal (z-score),Kdn(a2-3)Gal(b1-4)GlcNAc,-0.31
same,glycan array binding signal (z-score),[2],-0.337
same,glycan array binding signal (z-score),Kdn(a2-6)Gal(b1-4)GlcNAc,-0.342
same,glycan array binding signal (z-score),[3],-0.155
same,glycan array binding signal (z-score),[4],0.627
same,glycan array binding signal (z-score),Man(a1-2)Man(a1-3)Man,-0.177
same,glycan array binding signal (z-score),[5],-0.175
same,glycan array binding signal (z-score),[6],0.425
same,glycan array binding signal (z-score),[7],0.113
same,glycan array binding signal (z-score),[8],-0.109
same,glycan array binding signal (z-score),[9],0.854
same,glycan array binding signal (z-score),[10],0.659
same,glycan array binding signal (z-score),Man(a1-3)[Man(a1-6)]Man,1.18
same,glycan array binding signal (z-score),[11],0.839
same,glycan array binding signal (z-score),[12],0.352
same,glycan array binding signal (z-score),[13],0.347
same,glycan array binding signal (z-score),[14],0.151
same,glycan array binding signal (z-score),Man(a1-6)Man,-0.248
same,glycan array binding signal (z-score),Man(b1-4)GlcNAc,-0.329
same,glycan array binding signal (z-score),Neu5Ac(a2-3)Gal,-0.352
same,glycan array binding signal (z-score),[15],-0.338
same,glycan array binding signal (z-score),[16],-0.329
same,glycan array binding signal (z-score),[17],-0.335
same,glycan array binding signal (z-score),[18],-0.322
same,glycan array binding signal (z-score),[19],-0.347
same,glycan array binding signal (z-score),[20],-0.352
same,glycan array binding signal (z-score),[21],-0.345
same,glycan array binding signal (z-score),[22],-0.348
same,glycan array binding signal (z-score),[23],-0.33
same,glycan array binding signal (z-score),[24],-0.344
same,glycan array binding signal (z-score),[25],1.87
same,glycan array binding signal (z-score),[26],1.77
same,glycan array binding signal (z-score),[27],0.616
same,glycan array binding signal (z-score),[28],-0.322
same,glycan array binding signal (z-score),[29],-0.316
same,glycan array binding signal (z-score),Neu5Ac(a2-3)Gal(b1-4)Glc,-0.332
same,glycan array binding signal (z-score),[30],-0.339
same,glycan array binding signal (z-score),[31],-0.337
same,glycan array binding signal (z-score),[32],-0.345
